Hit rate of the full screen: of about 48,000 compounds, about 120 (0.25%) were called active. Roughly 4% stayed inconclusive and do not appear here. Calls come from the whole dose curve; as a rule, active = well fitted activation curve with a large enough effect; inconclusive = small, poorly fitted or top-dose-only effect, or another doubt; inactive = no such curve, though single readings can be large or run the other way. The entries are a selection whose mix differs from that of the whole data set. Entries without a call were filed so in the source.

A short description of the test: Primary qHTS for Identification of Small Molecule Activators of Huntingtin-Antisense Promoter Activity. Note: nearly all actives have a fitted effect of over 55% in size. Particulars: HEK293 HTT-AS promoter firefly luciferase reporter, 24 h; activity change, positive = activation: at 57.5 µM (top of the series), percent change from vehicle, -100% = no light. The gist of the method: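 Quantitative HTS used concentration series of up to 57.5 uM final on HEK293 luciferase reporter cells, 24 h at 37 degrees C. Readout was Dual-Glo firefly luminescence.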
(In general: Quantitative high-throughput screening tests each substance at several concentrations.)
Consider `CC(C)c1ccc(S(=O)(=O)N2CCC(N3CCN(Cc4ccccc4)C(=O)C3=O)CC2)cc1`, for which the activity change, positive = activation is -2.81%.
Consider `COc1ccc(C2=C(Nc3ccc(C)cc3C)c3ccccc3C2=O)cc1`, for which the activity change, positive = activation was -21.4%.
As to `CCCc1cc(=O)[nH]c(Nc2cc(C)cc(C)c2)n1`, the activity change, positive = activation was -24.5%.
Take `COc1ccc(NC(=O)CCCn2c(=O)c3cccn3c3cccnc32)cc1Cl`: the “activity change, positive = activation” value is inactive: -15.9%.
Turning to `Cc1ccc(NC(=O)c2cc3ccccn3n2)cc1F`, the activity change, positive = activation stood at 49.7%.
For the molecule `COc1ccc(NC2=C(c3ccccc3)C(=O)c3ccccc32)cc1Cl`, the activity change, positive = activation is -24.3%.
Then `COc1ccc(CNC(=O)c2cc3ccccn3n2)cc1OC`, with -4.55%; and `Cc1ccc(NC(=O)/C=C\C(=O)N(c2ccc(C(C)C)cc2)C(C(=O)NCc2ccco2)c2ccc(F)cc2)cc1` (stereo not given), with -45.2%; and `CC(=O)c1ccc(S(=O)(=O)Nc2ccc(-c3ccc(N4CCCCC4)nn3)cc2)cc1`, with 30.4%.
For `CCOc1ccc(S(=O)(=O)Nc2cccc(-c3ccc(N4CCCC4)nn3)c2)cc1`, the activity change, positive = activation is 2.41%.
Turning to `CCC1CCCCN1Cc1c(O)ccc2c(=O)c(Oc3ccccc3Cl)c(C(F)(F)F)oc12` (stereo not given), the activity change, positive = activation was -25.4%.
Then `Cc1oc2ncn(CC(C)C)c(=O)c2c1C(=O)NCCc1ccc(Cl)cc1`, with inactive: -14.6%; and `Cc1ccc(NC(=O)CSc2nnc(COc3ccc(Cl)cc3)o2)cc1`, with -8.1%.
Take `CCCCN1C(=O)CN(C2CCCCCC2)C(=O)C1c1ccc(OCC)c(OC)c1` (stereo not given): the activity change, positive = activation was -9.83%.
Then `Cc1ccc(-c2nnc(Nc3cccc(Br)c3)c3ccccc23)cc1S(=O)(=O)N1CCCCC1`, with -9.43%; and `CCOc1ccc(C2C(=O)N(C3CCCCC3)CC(=O)N2Cc2ccccc2OC)cc1OC` (stereo not given), with -18.4%.
Then `O=C(Nc1ccc(Oc2ccccc2)cc1)c1ccc(F)c(S(=O)(=O)N2CCN(c3cccc(Cl)c3)CC2)c1`, with inactive: -43.8%.
For `C=CCc1ccccc1OCCSc1nc(-c2cccs2)nc2cc(=O)[nH]n12`, the activity change, positive = activation was -4.38%.
Turning to `Cc1cc(C)c(S(=O)(=O)N2CCC(n3c(C(F)(F)F)nc4cccnc43)CC2)c(C)c1`, the activity change, positive = activation amounted to 1.75%.
Turning to `CCOc1ccc(NC(=O)CSc2oc(-c3cccs3)nc2S(=O)(=O)c2ccc(C)cc2)cc1`, the “activity change, positive = activation” value was inactive: -11.3%.
Then `COc1cc(C2C(=O)N(C3CCCCCC3)CC(=O)N2Cc2ccccc2)ccc1OC(C)C` (stereo not given), with -17.6%.
For `COC(=O)c1ccc(NC(=O)CN(Cc2ccccc2)S(=O)(=O)c2ccc(C)cc2)cc1`, the activity change, positive = activation is -28.6%.
For the molecule `CC1Cc2cc(S(=O)(=O)CCC(=O)Nc3ccc(F)cc3)ccc2N1C(=O)C1CC1` (stereo not given), the activity change, positive = activation is -9.98%.
As to `CN(C(=O)c1c[nH]c2ccc(S(=O)(=O)Nc3cccc(C(F)(F)F)c3)cc2c1=O)C1CCCCC1`, the “activity change, positive = activation” value is inactive: -20.3%.
Take `Cc1ccc(S(=O)(=O)Nc2cc3c(C(=O)OCc4ccccc4)c(C)oc3c3ccccc23)c(C)c1`: the activity change, positive = activation was -10.9%.
As to `CCOc1ccc(C2C(=O)N(C3CCCCCC3)CC(=O)N2Cc2ccc(F)cc2)cc1OC` (stereo not given), the activity change, positive = activation was -26.8%.
As to `Clc1ccc(Nc2nc(-c3ccccc3)c3ccccc3n2)c(Cl)c1`, the “activity change, positive = activation” value is inactive: 5.77%.
On to `COc1cc2oc(=O)c(CC(=O)NCCc3ccccc3)c(C)c2cc1Cl`, for which the activity change, positive = activation turned out to be 6.18%.
As to `Cc1ccc(NC(=O)/C(C#N)=C\c2ccc(-c3ccc(Cl)cc3)o2)c(C)c1`, the “activity change, positive = activation” value is inactive: -5.03%.
On to `Cc1ccc(NC(=O)Cn2cc(C(=O)C3CCCCC3)c3ccccc32)cc1`, for which the “activity change, positive = activation” value is inactive: -26.1%.
In the case of `Cc1ccccc1NC(=O)CSc1nc(-c2ccco2)nc2cc(=O)[nH]n12`, the activity change, positive = activation is -11.9%.
For the molecule `CCOc1ccc(-c2nc(CSCC(=O)NCc3ccc(C)cc3)c(C)o2)cc1`, the “activity change, positive = activation” value was inactive: -77.3%.
In the case of `Cc1coc2cc3oc(=O)c(CCC(=O)NCc4ccccc4Cl)c(C)c3cc12`, the activity change, positive = activation came out at 3.62%.
Then `OC[C@]1(O)OC[C@@H](O)[C@H](O)[C@@H]1O`, with inactive: -1.85%; and `CCOC(=O)c1c(-c2ccccc2)oc2ccc(N(C(C)=O)S(=O)(=O)c3ccccc3)cc12`, with -5.91%; and `CC(Sc1nc2c(c(=O)[nH]1)CCCC2)C(=O)Nc1cc(C(F)(F)F)ccc1Cl` (stereo not given), with inactive: -7.03%.
For `CC1(C)CC(=O)c2c(oc3c(Cl)cc(NS(=O)(=O)c4ccc(Br)cc4)cc23)C1`, the activity change, positive = activation is -0.363%.
With `COc1ccccc1CNC(=O)c1ccc(-c2nc(CS(=O)(=O)c3ccc(C)cc3)c(C)o2)cc1`, the activity change, positive = activation was -30.7%.
As for `COc1cc(NS(=O)(=O)c2ccc3oc(=O)c4ncn(C)c4c3c2)cc(OC)c1`, the activity change, positive = activation was -2.23%.
For `Cc1ccc(C)c(N2CCN(C(=O)C3CCN(C(=O)c4cc5sccc5n4C)CC3)CC2)c1`, the “activity change, positive = activation” value was inactive: -43.1%.
Then `CC1=C(/C=C/C(C)=C/C=C/C(C)=C/C(=O)O)C(C)(C)CCC1`, with inactive: -6.75%.
In the case of `Cc1ccc(C2C(=O)N(C3CCCCCC3)CC(=O)N2C(C)C)cc1` (stereo not given), the activity change, positive = activation is -8.93%.
Take `Cc1ccc(C2C(=O)N(C3CCCCCC3)CC(=O)N2CCC2=CCCCC2)cc1` (stereo not given): the activity change, positive = activation was -37.9%.
For the molecule `CCOc1ccc(C(=O)Nc2ccc(Cl)c(-c3nc4cc(C)cc(C)c4o3)c2)cc1`, the activity change, positive = activation was -6.49%.
Turning to `Cc1ccc(-n2nc(C)c(C(=O)NCCCN3CCN(c4ccccc4F)CC3)c2-n2cccc2)cc1`, the activity change, positive = activation was -40.1%.
On to `COC(=O)c1c(NC(=O)CCCOc2ccccc2C)sc2c1CCC2`, for which the activity change, positive = activation was -1.44%.
In the case of `CCOc1ccccc1NC(=O)C1CCN(S(=O)(=O)Cc2ccccc2)CC1`, the activity change, positive = activation is -5.63%.
As to `Cc1ccc(NC(=O)c2ccc3c(=O)n4nc(Nc5ccccc5C)sc4nc3c2)cc1C`, the “activity change, positive = activation” value was inactive: -4.68%.
Consider `Cc1ccc(NC(c2cccc(Cl)c2)c2nnc(-c3ccccc3)o2)cc1F` (stereo not given), for which the activity change, positive = activation was -19.3%.
As to `COc1ccc(CNC(=O)CCS(=O)(=O)c2ccc3c(c2)CC(C)N3C(=O)C2CC2)cc1` (stereo not given), the activity change, positive = activation was -15.1%.
Regarding `COc1ccc(N(C(=O)c2cc(OC)c(OC)c(OC)c2)S(=O)(=O)c2ccc(C)cc2)cc1`, the “activity change, positive = activation” value was inactive: 0%.
Regarding `COc1ccccc1N1CCN(C(=O)c2oc3ccccc3c2N)CC1`, the activity change, positive = activation is -19.5%.
In the case of `CC(=O)Nc1nonc1-c1nnc(SCc2cccc(Br)c2)n1C`, the “activity change, positive = activation” value was inactive: -13.3%.
Regarding `CCOc1ccc(NC(=O)CC2C(=O)N(c3cccc(C)c3)C(=O)N2Cc2cccnc2)cc1` (stereo not given), the activity change, positive = activation came out at 0.609%.
For the molecule `COc1ccc(N2CCN(C(=O)c3oc4ccccc4c3NC(=O)c3ccccc3OC)CC2)cc1`, the “activity change, positive = activation” value is inactive: -12.6%.
As to `Cc1cccc(N2CCN(C3(c4ccccc4)C(=O)c4ccccc4C3=O)CC2C)c1` (stereo not given), the activity change, positive = activation is -6.08%.
As for `COc1ccc2c(C)c(CCC(=O)NCCc3ccc(Cl)cc3)c(=O)oc2c1`, the activity change, positive = activation was -25.6%.
Then `CC(C)C(=O)Nc1ccc2nc(SCCOc3ccccc3)sc2c1`, with inactive: -9.15%; and `CCOC(=O)c1c(NC(=O)c2cc(-c3ccc(OC)cc3)on2)sc(C)c1C`, with -0.815%; and `CNC(=O)COc1ccc(Nc2nnc(-c3ccc(C)c(S(=O)(=O)NC(C)(C)C)c3)c3ccccc23)cc1`, with -34.2%.

The values are drawn from PubChem BioAssay AID1508624 (National Center for Advancing Translational Sciences (NCATS), 2021).
